Positions count from the first letter of the chain named. Results are given in words; binding and its absence hold for the method and conditions named. Binding seen in cells or lysates may run through a third protein. Some results given as binding are weak or reduced against the parent protein; the word gives no strength.
Experiments:
Assay in all cases: pull-down; SFB-tagged bait expressed in cells (HEK293T/293T where named), lysate in NETN buffer, streptavidin Sepharose beads 1 h at 4°C, endogenous prey detected by Western blot; Fig 3B/3L control shRNA cells; Fig 4C control, PPM1G and B56δ shRNA cells
[1] = molecular target: T1, SFB-PPM1G S173C (human) (UniProt O15355)
T1 sequence: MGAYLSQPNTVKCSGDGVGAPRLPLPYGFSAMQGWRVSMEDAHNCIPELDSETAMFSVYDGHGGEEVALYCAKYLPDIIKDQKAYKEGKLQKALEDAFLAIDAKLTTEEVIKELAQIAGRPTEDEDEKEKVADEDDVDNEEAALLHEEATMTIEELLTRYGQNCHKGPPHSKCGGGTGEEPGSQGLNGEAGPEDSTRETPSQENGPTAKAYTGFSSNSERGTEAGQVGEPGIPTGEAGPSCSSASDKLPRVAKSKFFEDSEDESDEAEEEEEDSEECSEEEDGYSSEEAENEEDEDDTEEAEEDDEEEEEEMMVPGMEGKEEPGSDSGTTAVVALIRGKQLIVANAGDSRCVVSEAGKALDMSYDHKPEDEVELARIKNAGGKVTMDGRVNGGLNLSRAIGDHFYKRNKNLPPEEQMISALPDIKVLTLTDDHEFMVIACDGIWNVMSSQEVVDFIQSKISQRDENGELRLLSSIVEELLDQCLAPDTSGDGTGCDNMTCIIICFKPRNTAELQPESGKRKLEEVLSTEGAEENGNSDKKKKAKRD

Sequences of proteins named here, by UniProt entry; tags and fusion partners are left off.
UniProt P35221: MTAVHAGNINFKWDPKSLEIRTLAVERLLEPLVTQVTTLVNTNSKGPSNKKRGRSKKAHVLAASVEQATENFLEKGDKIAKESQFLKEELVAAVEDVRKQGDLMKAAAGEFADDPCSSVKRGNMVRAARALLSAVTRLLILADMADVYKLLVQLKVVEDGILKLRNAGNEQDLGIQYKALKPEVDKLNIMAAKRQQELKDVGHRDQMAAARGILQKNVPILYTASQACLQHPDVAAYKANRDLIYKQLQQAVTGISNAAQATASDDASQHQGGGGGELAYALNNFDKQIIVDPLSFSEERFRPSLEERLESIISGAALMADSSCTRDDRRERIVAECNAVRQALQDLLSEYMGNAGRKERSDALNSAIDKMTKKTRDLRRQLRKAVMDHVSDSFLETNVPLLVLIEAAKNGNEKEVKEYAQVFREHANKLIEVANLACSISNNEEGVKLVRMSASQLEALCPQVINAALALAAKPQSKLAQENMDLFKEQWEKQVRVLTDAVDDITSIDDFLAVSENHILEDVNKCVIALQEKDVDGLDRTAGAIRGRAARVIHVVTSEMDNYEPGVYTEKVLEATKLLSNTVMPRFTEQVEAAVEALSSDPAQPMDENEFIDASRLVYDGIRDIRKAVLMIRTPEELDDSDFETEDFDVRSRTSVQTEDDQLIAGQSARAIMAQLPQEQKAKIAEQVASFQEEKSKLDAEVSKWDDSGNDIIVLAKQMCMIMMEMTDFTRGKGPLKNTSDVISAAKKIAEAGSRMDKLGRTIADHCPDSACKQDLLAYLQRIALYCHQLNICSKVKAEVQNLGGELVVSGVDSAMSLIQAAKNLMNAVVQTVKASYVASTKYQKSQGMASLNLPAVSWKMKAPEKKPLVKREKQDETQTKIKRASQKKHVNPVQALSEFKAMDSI

[2] = molecular target: T2, SFB-PPM1G A237D (human) (UniProt O15355)
T2 sequence: T1 sequence with C173S, A237D

[3] = molecular target: T3, SFB-PPM1G D133V (human) (UniProt O15355)
T3 sequence: T1 sequence with D133V, C173S

Measured: binding

endogenous α-catenin (from UniProt P35221 1-906)
binds: all assays above

From publication PMC6776900, “PPM1G forms a PPP‐type phosphatase holoenzyme with B56δ that maintains adherens junction integrity” (EMBO Reports, 2019)
